# Experimental data taken from the supplement of paper PMC4604168 (melanoma cell lines).
# The list shows a part of the results. Many values rest on one well or one pass, so single values are uncertain.
# Test system: A101D
# Assay: cell count relative to DMSO control; melanoma cells; higher = more viable cells
# Conditions: library dose: low library concentration; 72 h
# 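Also: cell number obtained by counting DAPI-stained nuclei in high-throughput microscope images with image analysis software, screen run in 1,536-well plates.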
row,Compound,cell count
1,"O=S(=O)(c1ccccc1)N(CC(F)(F)F)c1ccc(C(O)(C(F)(F)F)C(F)(F)F)cc1 + O=c1cc(-c2cccc3c2Sc2ccccc2S3)oc(N2CCOCC2)c1 [KU55933] (first compound 1.4 µM, partner dose 1 µM)",98.5%
2,"O=S(=O)(c1ccccc1)N(CC(F)(F)F)c1ccc(C(O)(C(F)(F)F)C(F)(F)F)cc1 + Oc1nc(-c2ccc(C(F)(F)F)cc2)nc2c1CSCC2 [XAV939] (first compound 1.4 µM, partner dose 2 µM)",104%
3,"COc1ccc2c(c1)CCC1C2CCC2(C)C(NCCCCCCN3C(=O)C=CC3=O)CCC12 (centres undefined) + Cn1cc(/C=C2\C(=O)Nc3cccnc32)c2ccccc21 [GW441756] (first compound 0.4 µM, partner dose 0.4 µM)",110%
4,"COc1ccc(COc2ccc(Cc3cnc(N)nc3N)cc2OC)cc1 + O=S(=O)(c1ccccc1)N(CC(F)(F)F)c1ccc(C(O)(C(F)(F)F)C(F)(F)F)cc1 [T0901317] (first compound 1 µM, partner dose 1.4 µM)",103%
5,"Cc1cc([N+](=O)[O-])ccc1NS(=O)(=O)c1cc(Cl)ccc1Cl + c1cc(-c2cnn3cc(-c4ccc(OCCN5CCCCC5)cc4)cnc23)ccn1 [Dorsomorphin] (first compound 1 µM, partner dose 0.4 µM)",94.3%
6,"Oc1nc(-c2ccc(C(F)(F)F)cc2)nc2c1CSCC2 + CC(C)CCN1c2nc(Nc3cc(F)c(O)c(F)c3)ncc2N(C)C(=O)C1C [BID1870] (first compound 2 µM, partner dose 0.2 µM)",86.1%
7,"O=S(=O)(c1ccccc1)N(CC(F)(F)F)c1ccc(C(O)(C(F)(F)F)C(F)(F)F)cc1 + COc1cc(N2CCC(N3CCN(C)CC3)CC2)ccc1Nc1ncc(Cl)c(Nc2ccccc2S(=O)(=O)C(C)C)n1 [NVP-TAE684] (first compound 1.4 µM, partner dose 0.08 µM)",86.4%
8,"Oc1nc(-c2ccc(C(F)(F)F)cc2)nc2c1CSCC2 + c1cc(-c2cnn3cc(-c4ccc(OCCN5CCCCC5)cc4)cnc23)ccn1 [Dorsomorphin] (first compound 2 µM, partner dose 0.4 µM)",95.6%
9,"COc1ccc(-c2ccc3c(N4CCOCC4)nc(N4C[C@@H](C)O[C@@H](C)C4)nc3n2)cc1CO + Oc1cc(-c2nc(-c3ccccc3)[nH]c2-c2ccncc2)ccc1Cl [L779450] (first compound 0.02 µM, partner dose 0.2 µM)",95.1%
10,"CCN(CC)CCCCNc1ncc2cc(-c3cc(OC)cc(OC)c3)c(NC(=O)NC(C)(C)C)nc2n1 + Cc1cc([N+](=O)[O-])ccc1NS(=O)(=O)c1cc(Cl)ccc1Cl [FH535] (first compound 0.1 µM, partner dose 1 µM)",82.6%
11,"O=C(O)C(=O)Nc1sc2c(c1C(=O)O)CCNC2 + c1cc(-c2cnn3cc(-c4ccc(OCCN5CCCCC5)cc4)cnc23)ccn1 [Dorsomorphin] (first compound 1.66667 µM, partner dose 0.4 µM)",93.4%
12,"O=S(=O)(c1ccccc1)N(CC(F)(F)F)c1ccc(C(O)(C(F)(F)F)C(F)(F)F)cc1 + CCCCCCCCCCCC1=C(O)C(=O)C=C(O)C1=O [Embelin] (first compound 1.4 µM, partner dose 1.2 µM)",106%
13,"COC(=O)c1sccc1S(=O)(=O)Nc1ccc(Nc2ccccc2)cc1OC + O=S(=O)(c1ccccc1)N(CC(F)(F)F)c1ccc(C(O)(C(F)(F)F)C(F)(F)F)cc1 [T0901317] (first compound 1 µM, partner dose 1.4 µM)",95.7%
14,"COc1ccc2c(c1)CCC1C2CCC2(C)C(NCCCCCCN3C(=O)C=CC3=O)CCC12 (centres undefined) + Oc1nc(-c2ccc(C(F)(F)F)cc2)nc2c1CSCC2 [XAV939] (first compound 0.4 µM, partner dose 2 µM)",94.5%
15,"COc1ccc2c(c1)CCC1C2CCC2(C)C(NCCCCCCN3C(=O)C=CC3=O)CCC12 (centres undefined) + O=c1cc(-c2cccc3c2Sc2ccccc2S3)oc(N2CCOCC2)c1 [KU55933] (first compound 0.4 µM, partner dose 1 µM)",92%
16,"CCN(CC)CCCCNc1ncc2cc(-c3cc(OC)cc(OC)c3)c(NC(=O)NC(C)(C)C)nc2n1 + CC(C)CCN1c2nc(Nc3cc(F)c(O)c(F)c3)ncc2N(C)C(=O)C1C [BID1870] (first compound 0.1 µM, partner dose 0.2 µM)",88.5%
17,"O=C1NC(=O)/C(=C/c2ccc(-c3ccc(F)cc3O)o2)S1 + c1cc(-c2cnn3cc(-c4ccc(OCCN5CCCCC5)cc4)cnc23)ccn1 [Dorsomorphin] (first compound 1 µM, partner dose 0.4 µM)",111%

row,Compound,cell count
1,"COc1cc2ncnc(Nc3ccc(Oc4ccccc4)cc3)c2cc1OC + Oc1nc(-c2ccc(C(F)(F)F)cc2)nc2c1CSCC2 [XAV939] (first compound 2 µM, partner dose 2 µM)",88.3%
2,"O=C1NC(=O)/C(=C/c2ccc(-c3ccc(F)cc3O)o2)S1 + COc1cc(N2CCC(N3CCN(C)CC3)CC2)ccc1Nc1ncc(Cl)c(Nc2ccccc2S(=O)(=O)C(C)C)n1 [NVP-TAE684] (first compound 1 µM, partner dose 0.08 µM)",91.7%
3,"CCN(CC)CCCCNc1ncc2cc(-c3cc(OC)cc(OC)c3)c(NC(=O)NC(C)(C)C)nc2n1 + c1cc(-c2cnn3cc(-c4ccc(OCCN5CCCCC5)cc4)cnc23)ccn1 [Dorsomorphin] (first compound 0.1 µM, partner dose 0.4 µM)",106%
4,"O=C1NC(=O)/C(=C/c2ccc(-c3ccc(F)cc3O)o2)S1 + Oc1nc(-c2ccc(C(F)(F)F)cc2)nc2c1CSCC2 [XAV939] (first compound 1 µM, partner dose 2 µM)",88.3%
5,"COc1ccc2c(c1)CCC1C2CCC2(C)C(NCCCCCCN3C(=O)C=CC3=O)CCC12 (centres undefined) + CC(C)CCN1c2nc(Nc3cc(F)c(O)c(F)c3)ncc2N(C)C(=O)C1C [BID1870] (first compound 0.4 µM, partner dose 0.2 µM)",89.8%
6,"c1cc(-c2cnn3cc(-c4ccc(OCCN5CCCCC5)cc4)cnc23)ccn1 [Dorsomorphin] + Cn1cc(/C=C2\C(=O)Nc3cccnc32)c2ccccc21 [GW441756] (first compound 0.4 µM, partner dose 0.4 µM)",97%
7,"COc1cc(N2CCC(N3CCN(C)CC3)CC2)ccc1Nc1ncc(Cl)c(Nc2ccccc2S(=O)(=O)C(C)C)n1 + O=c1cc(-c2cccc3c2Sc2ccccc2S3)oc(N2CCOCC2)c1 [KU55933] (first compound 0.08 µM, partner dose 1 µM)",103%
8,"COc1ccc2c(c1)CCC1C2CCC2(C)C(NCCCCCCN3C(=O)C=CC3=O)CCC12 (centres undefined) + O=S(=O)(c1ccccc1)N(CC(F)(F)F)c1ccc(C(O)(C(F)(F)F)C(F)(F)F)cc1 [T0901317] (first compound 0.4 µM, partner dose 1.4 µM)",85.7%
9,"O=C(O)C(=O)Nc1sc2c(c1C(=O)O)CCNC2 + CC(C)CCN1c2nc(Nc3cc(F)c(O)c(F)c3)ncc2N(C)C(=O)C1C [BID1870] (first compound 1.66667 µM, partner dose 0.2 µM)",89.4%
10,"COc1ccc(COc2ccc(Cc3cnc(N)nc3N)cc2OC)cc1 + Oc1nc(-c2ccc(C(F)(F)F)cc2)nc2c1CSCC2 [XAV939] (first compound 1 µM, partner dose 2 µM)",89.9%
11,"Oc1cc(-c2nc(-c3ccccc3)[nH]c2-c2ccncc2)ccc1Cl + c1cc(-c2cnn3cc(-c4ccc(OCCN5CCCCC5)cc4)cnc23)ccn1 [Dorsomorphin] (first compound 0.2 µM, partner dose 0.4 µM)",86.3%
12,"COc1ccc(COc2ccc(Cc3cnc(N)nc3N)cc2OC)cc1 + COc1cc(N2CCC(N3CCN(C)CC3)CC2)ccc1Nc1ncc(Cl)c(Nc2ccccc2S(=O)(=O)C(C)C)n1 [NVP-TAE684] (first compound 1 µM, partner dose 0.08 µM)",108%
13,"COc1ccc(-c2ccc3c(N4CCOCC4)nc(N4C[C@@H](C)O[C@@H](C)C4)nc3n2)cc1CO + CC(C)CCN1c2nc(Nc3cc(F)c(O)c(F)c3)ncc2N(C)C(=O)C1C [BID1870] (first compound 0.02 µM, partner dose 0.2 µM)",84.5%
14,"O=C(O)C(=O)Nc1sc2c(c1C(=O)O)CCNC2 + CCCCCCCCCCCC1=C(O)C(=O)C=C(O)C1=O [Embelin] (first compound 1.66667 µM, partner dose 1.2 µM)",102%
15,"N#Cc1c(O)c2c(-c3ccc(-c4ccccc4O)cc3)csc2[nH]c1=O + O=C1NC(=O)/C(=C/c2ccc(-c3ccc(F)cc3O)o2)S1 [AS252424] (first compound 2 µM, partner dose 1 µM)",97.1%
16,"COc1ccc(COc2ccc(Cc3cnc(N)nc3N)cc2OC)cc1 + O=c1cc(-c2cccc3c2Sc2ccccc2S3)oc(N2CCOCC2)c1 [KU55933] (first compound 1 µM, partner dose 1 µM)",103%
17,"COC(=O)c1sccc1S(=O)(=O)Nc1ccc(Nc2ccccc2)cc1OC + Cc1cc([N+](=O)[O-])ccc1NS(=O)(=O)c1cc(Cl)ccc1Cl [FH535] (first compound 1 µM, partner dose 1 µM)",96.1%
